The text below walks through data of publication PMC5571198.

Sequences of proteins named here, by UniProt entry; tags and fusion partners are left off.
UniProt Q9BSM1: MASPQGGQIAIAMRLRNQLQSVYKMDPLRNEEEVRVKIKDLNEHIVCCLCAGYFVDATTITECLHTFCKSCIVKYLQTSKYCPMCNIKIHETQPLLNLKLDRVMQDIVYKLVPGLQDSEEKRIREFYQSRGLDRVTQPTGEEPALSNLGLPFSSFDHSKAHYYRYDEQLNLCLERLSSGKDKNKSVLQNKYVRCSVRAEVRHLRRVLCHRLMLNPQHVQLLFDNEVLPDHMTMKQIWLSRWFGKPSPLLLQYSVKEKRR
UniProt O75530: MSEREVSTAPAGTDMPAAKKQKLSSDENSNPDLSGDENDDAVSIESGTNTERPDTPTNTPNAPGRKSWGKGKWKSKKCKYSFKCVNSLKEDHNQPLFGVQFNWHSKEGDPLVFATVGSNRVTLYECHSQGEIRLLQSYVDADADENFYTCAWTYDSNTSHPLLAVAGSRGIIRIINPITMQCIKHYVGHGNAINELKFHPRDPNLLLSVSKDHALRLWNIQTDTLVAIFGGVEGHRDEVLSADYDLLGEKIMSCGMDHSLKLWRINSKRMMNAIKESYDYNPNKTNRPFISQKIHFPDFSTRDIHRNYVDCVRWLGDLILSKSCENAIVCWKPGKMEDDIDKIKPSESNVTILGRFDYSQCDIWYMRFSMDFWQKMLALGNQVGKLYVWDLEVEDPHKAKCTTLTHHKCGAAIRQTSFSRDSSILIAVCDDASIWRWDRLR
UniProt Q92800: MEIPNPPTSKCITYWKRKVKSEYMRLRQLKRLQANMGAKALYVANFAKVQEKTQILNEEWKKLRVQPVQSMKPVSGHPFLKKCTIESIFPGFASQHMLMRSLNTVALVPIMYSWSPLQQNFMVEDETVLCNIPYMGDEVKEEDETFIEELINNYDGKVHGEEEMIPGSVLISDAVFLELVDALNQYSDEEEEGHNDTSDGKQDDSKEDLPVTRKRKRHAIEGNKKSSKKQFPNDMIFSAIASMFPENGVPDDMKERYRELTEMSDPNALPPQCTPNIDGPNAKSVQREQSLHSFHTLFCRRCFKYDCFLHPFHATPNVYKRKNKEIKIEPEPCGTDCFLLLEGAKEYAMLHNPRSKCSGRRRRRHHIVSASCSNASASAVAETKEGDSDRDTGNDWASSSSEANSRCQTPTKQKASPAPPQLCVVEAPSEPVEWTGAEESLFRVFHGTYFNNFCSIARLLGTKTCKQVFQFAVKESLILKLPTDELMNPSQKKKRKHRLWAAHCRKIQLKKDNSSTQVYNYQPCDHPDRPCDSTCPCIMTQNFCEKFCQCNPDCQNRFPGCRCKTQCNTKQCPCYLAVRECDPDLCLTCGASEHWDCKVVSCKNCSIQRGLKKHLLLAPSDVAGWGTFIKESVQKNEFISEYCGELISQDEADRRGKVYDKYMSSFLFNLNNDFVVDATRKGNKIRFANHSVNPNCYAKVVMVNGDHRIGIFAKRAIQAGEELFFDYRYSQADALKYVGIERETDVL
UniProt Q99496: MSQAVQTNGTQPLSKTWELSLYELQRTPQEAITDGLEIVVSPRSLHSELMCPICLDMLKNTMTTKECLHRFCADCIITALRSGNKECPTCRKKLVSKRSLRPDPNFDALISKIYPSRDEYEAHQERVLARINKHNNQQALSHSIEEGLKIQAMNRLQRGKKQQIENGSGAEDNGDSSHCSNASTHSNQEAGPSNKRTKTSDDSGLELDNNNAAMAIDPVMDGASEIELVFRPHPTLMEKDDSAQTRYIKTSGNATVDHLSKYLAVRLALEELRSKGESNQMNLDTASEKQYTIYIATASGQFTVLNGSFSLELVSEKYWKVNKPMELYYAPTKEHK
UniProt O95931: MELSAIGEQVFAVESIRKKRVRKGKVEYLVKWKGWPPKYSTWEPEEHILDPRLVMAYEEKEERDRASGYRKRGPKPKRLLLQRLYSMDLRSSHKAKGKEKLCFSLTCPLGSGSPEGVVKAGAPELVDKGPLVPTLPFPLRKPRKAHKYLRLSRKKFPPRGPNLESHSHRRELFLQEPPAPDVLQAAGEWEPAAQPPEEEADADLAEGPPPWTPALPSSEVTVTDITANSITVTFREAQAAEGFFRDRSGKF
UniProt P35226: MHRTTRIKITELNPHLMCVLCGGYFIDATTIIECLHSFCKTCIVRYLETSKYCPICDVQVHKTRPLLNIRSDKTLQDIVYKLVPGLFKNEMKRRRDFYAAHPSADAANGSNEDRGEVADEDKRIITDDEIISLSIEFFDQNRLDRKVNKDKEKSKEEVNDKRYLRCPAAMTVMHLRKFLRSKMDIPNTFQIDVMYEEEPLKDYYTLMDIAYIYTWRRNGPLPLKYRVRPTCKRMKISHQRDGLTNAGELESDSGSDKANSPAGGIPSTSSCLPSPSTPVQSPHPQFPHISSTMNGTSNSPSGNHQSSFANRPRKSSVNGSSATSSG

These are yes or no findings as the source states them, for the method shown. In cells and extracts the contact can be indirect. Some binding calls cover weakened binding; strength is not graded here. Where a sequence is shown, tags or fusion partners need not be part of it.

The labels stand for the following.
T1: FLAG-tagged human (h) USP26 (ubiquitin-specific protease 26) (human) (UniProt Q9BXU7)
T1 sequence: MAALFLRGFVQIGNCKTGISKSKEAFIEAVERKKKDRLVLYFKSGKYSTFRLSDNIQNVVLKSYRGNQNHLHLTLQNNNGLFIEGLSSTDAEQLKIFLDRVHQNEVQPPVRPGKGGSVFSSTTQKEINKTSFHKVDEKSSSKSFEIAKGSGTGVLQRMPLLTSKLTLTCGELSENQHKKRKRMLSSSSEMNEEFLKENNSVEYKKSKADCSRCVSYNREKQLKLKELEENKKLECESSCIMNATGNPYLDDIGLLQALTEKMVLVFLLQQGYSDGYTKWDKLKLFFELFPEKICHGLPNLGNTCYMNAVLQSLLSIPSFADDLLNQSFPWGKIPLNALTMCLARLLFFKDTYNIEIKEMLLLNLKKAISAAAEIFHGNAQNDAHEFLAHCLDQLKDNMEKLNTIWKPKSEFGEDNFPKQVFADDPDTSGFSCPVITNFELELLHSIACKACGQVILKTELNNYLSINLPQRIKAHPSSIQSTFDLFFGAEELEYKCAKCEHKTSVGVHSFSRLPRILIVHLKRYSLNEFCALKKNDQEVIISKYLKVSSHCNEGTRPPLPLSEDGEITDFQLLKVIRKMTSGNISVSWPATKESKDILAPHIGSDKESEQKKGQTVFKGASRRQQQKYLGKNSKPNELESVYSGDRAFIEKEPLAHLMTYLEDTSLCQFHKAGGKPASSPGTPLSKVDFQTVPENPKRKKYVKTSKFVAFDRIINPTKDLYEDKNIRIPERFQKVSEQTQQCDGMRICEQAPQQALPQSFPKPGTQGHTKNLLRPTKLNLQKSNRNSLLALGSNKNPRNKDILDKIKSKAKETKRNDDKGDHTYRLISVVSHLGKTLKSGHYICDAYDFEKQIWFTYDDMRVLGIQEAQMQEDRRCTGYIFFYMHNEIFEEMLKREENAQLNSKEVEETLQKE

B1: HA-tagged CBX4 (protein, UniProt O55187 1-551)
chain: MELPAVGEHVFAVESIEKKRIRKGRVEYLVKWRGWSPKYNTWEPEENILDPRLLIAFQNRERQEQLMGYRKRGPKPKPLVVQVPTFARRSNVLTGLQDSSADNRAKLELGTQGKGQGHQYELNSKKHHQYQPHSKERSGKPPPPGKSGKYYYQLNSKKHHPYQPDPKMYDLQYQGGHKEAPSPTCPDLGTKSHPPDKWAHGAAAKGYLGAVKPLGGGAGAPGKGSEKGPPNGMTPAPKEAVTGNGIGGKMKIVKNKNKNGRIVIVMSKYMENGMQAVKIKSGEAAEGEARSPSHKKRAAEERHPQGDRTFKKAAGASEEKKAEVPCKRREEEALVSGDAQPQDLGSRKLSPTKEAFGEQPLQLTTKPDLLAWDPARSSHPPAHHHHHHHHHHHHHTVGLNLSHARKRCLSETHGEREPCKKRLTARSISTPTCLGGSPVSEHPANVSPTAASLPQPEVILLDSDLDEPIDLRCVKMRSDAGEPPSTLQVKPEAPAVAAVVAPAPASEKPPAEAQEEPVEPLSEFKPFFGNIIITDVTANCLTVTFKEYVTV
B2: HA-tagged PCGF2 (protein, UniProt P35227 1-344)
chain: MHRTTRIKITELNPHLMCALCGGYFIDATTIVECLHSFCKTCIVRYLETNKYCPMCDVQVHKTRPLLSIRSDKTLQDIVYKLVPGLFKDEMKRRRDFYAAYPLTEVPNGSNEDRGEVLEQEKGALSDDEIVSLSIEFYEGARDRDEKKGPLENGDGDKEKTGVRFLRCPAAMTVMHLAKFLRNKMDVPSKYKVEVLYEDEPLKEYYTLMDIAYIYPWRRNGPLPLKYRVQPACKRLTLATVPTPSEGTNTSGASECESVSDKAPSPATLPATSSSLPSPATPSHGSPSSHGPPATHPTSPTPPSTASGATTAANGGSLNCLQTPSSTSRGRKMTVNGAPVPPLT
B3: HA-tagged CBX6 (protein, UniProt Q9DBY5 1-414)
chain: MELSAVGERVFAAESIIKRRIRKGRIEYLVKWKGWAIKYSTWEPEENILDSRLIAAFEQKERERELYGPKKRGPKPKTFLLKARAQAEALRISDVHFSVKPSASASSPKLHSSAAVHRLKKDIRRCHRMSRRPLPRPDPQGGSPGLRPPISPFSETVRIINRKVKPREPKRNRIILNLKVIDKGPGGGSTAQGTGALARPKVPSRNRVIGKSKKFSESMLRTQIRHMKFGTFALYKPPPAPLAPSTAGKADVASSGPGLLLATPAAAPFDAHSSSSSGCPSPTLQSSDPDDAPPKLLPETLSRSVPNWRESEVLDLSIPPEAAATGQRVPPDVTGAADQALHTALEPTGAGSSEPEAGDWRPEMSPCSNVVVTDVTSNLLTVTIKEFCSPEDFEKVAAGVAGATGGGGGTGPSK
B4: HA-tagged RYBP (protein, UniProt Q8N488 1-228)
chain: MTMGDKKSPTRPKRQAKPAADEGFWDCSVCTFRNSAEAFKCSICDVRKGTSTRKPRINSQLVAQQVAQQYATPPPPKKEKKEKVEKQDKEKPEKDKEISPSVTKKNTNKKTKPKSDILKDPPSEANSIQSANATTKTSETNHTSRPRLKNVDRSTAQQLAVTVGNVTVIITDFKEKTRSSSTSSSTVTSSAGSEQQNQSSSGSESTDKGSSRSSTPKGDMSAVNDESF

The assay concerns the target T1, FLAG-tagged human (h) USP26 (ubiquitin-specific protease 26) (human). In words: co-IP; 293T cells (also RING1A KO 293T cells, Supplementary Fig. 3b) co-transfected with HA-tagged PRC1 component and FLAG-hUSP26; lysed 48 h after transfection in 50 mM Tris-HCl pH 8.0, 150 mM NaCl, 1 mM EDTA, 1% Nonidet P-40, 2 mM MgCl2, benzonase, 10% glycerol; IP with anti-FLAG, western blot with anti-HA (Fig. 4a; Supplementary Fig. 3a). On the technique in general: A western blot detects proteins with antibodies after separation by electrophoresis.
With “HA-tagged PCGF1 (from UniProt Q9BSM1 1-259)”, the binding entry is given as “no binding”. In the case of EED (from UniProt O75530 1-441), the binding entry is listed as “no binding”.

As for EZH1 (from UniProt Q92800 1-747), the binding result is “no binding”. On to “HA-tagged RING1B (from UniProt Q99496 1-336)”, for which the binding entry is “no binding”. The same measure for “HA-tagged CBX7 (from UniProt O95931 1-251)”: “binds”. As for “HA-tagged BMI1 (from UniProt P35226 1-326)”, the binding result is “no binding”. The same measure for B1: “binds”; for B2: “binds”. The entry for B3 is “binds”; for B4 it is “no binding”.
